Measurements: the supplement of paper PMC12217912
Some of the results follow. The full chains were built here from the parent and the listed change. Values near 0.05 are background.

B1: TEV protease; numbered along this chain (parent)
chain: MGESLFKGPRDYNPISSSICHLTNESDGHTTSLYGIGFGPFIITNKHLFRRNNGTLVVQSLHGVFKVKDTTTLQQHLVDGRDMIIIRMPKDFPPFPQKLKFREPQREERICLVTTNFQTKSMSSMVSDTSCTFPSGDGIFWKHWIQTKDGQCGSPLVSTRDGFIVGIHSASNFTNTNNYFTSVPKNFMELLTNQEAQQWVSGWRLNADSVLWGGHKVFMVKPEEPFQPVKEATQL

Variants of: B1
Assay: raw area under fraction-flipped curve 0-4 h after induction (AUC4h, not background-subtracted), DNA-recorder readout of cleavage of the substrate (dimensionless); higher = more cleavage of the substrate by the protease variant
Details: temperature: 34 °C; time window: 0-4 h after rhamnose induction
Description: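 In vivo DNA recorder in E. coli TOP10(DE3) ΔrhaA at 34 °C. Each TEVp single-site mutant (parent TEVp 0) is paired with a single-site variant of the 7-mer TEVs (canonical ENLYFQ|S). The substrate sits between flexible linkers in a Bxb1-sfGFP-TEVs-SsrA fusion, so cleavage stabilises Bxb1 and speeds flipping of a recombination array, read by NGS. The value is the raw area under the fraction-flipped curve over 0-4 h after rhamnose induction (AUC4h), with ≥20 reads per time point. It is not background-subtracted; inactive controls average about 0.047.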
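Also: Bxb1 expression induced with 0.2% (w/v) L-rhamnose at OD600 near 0.5, cultures sampled hourly, flipped fraction per protease–substrate barcode pair counted by paired-end Illumina sequencing.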

Row | Variant | area with substrate ENLAFQS | area with substrate ENLCFQS | area with substrate ENLDFQS | area with substrate ENLEFQS | area with substrate ENLFFQS | area with substrate ENLHFQS | area with substrate ENLIFQS | area with substrate ENLKFQS | area with substrate ENLLFQS | area with substrate ENLMFQS | area with substrate ENLNFQS | area with substrate ENLPFQS | area with substrate ENLQFQS | area with substrate ENLRFQS | area with substrate ENLSFQS | area with substrate ENLWFQS | area with substrate ENLTFQS | area with substrate ENLGFQS | area with substrate ENLVFQS
1 | MGESLFKGPRDYNPISSSICHLTNESDGHTTSLYGIGFGPFIITNKHLFRRNNGTLVVQSLHGVFKVKDTTTLQQHLVDGRDMIIIRMPKDFPPFPQKLKFREPQREERICLVTTNFQTKSMSSMVSDSSCTFPSGDGIFWKHWIQTKDGQCGSPLVSTRDGFIVGIHSASNFTNTNNYFTSVPKNFMELLTNQEAQQWVSGWRLNADSVLWGGHKVFMVKPEEPFQPVKEATQL [T129S] | 0.0533 | 0.089 | 0.069 | 0.061 | 0.083 | 0.0668 | 0.0932 | 0.0803 | 0.075 | 0.0743 | 0.0443 | 0.062 | 0.0663 | 0.0705 | 0.0653 | 0.0674 | – | – | –
2 | MGESLFKGPRDYNPISSSICHLTNESDGHTTSLYGIGFGPFIITNKHLFRRNNGTLVVQSLHGVFKVKDTTTLQQHLVDGRDMIIIRMPKDFPPFPQKLKFREPQREERICLVTTNFQTKSMSSMVSDMSCTFPSGDGIFWKHWIQTKDGQCGSPLVSTRDGFIVGIHSASNFTNTNNYFTSVPKNFMELLTNQEAQQWVSGWRLNADSVLWGGHKVFMVKPEEPFQPVKEATQL [T129M] | 0.0659 | – | 0.0715 | 0.0647 | – | – | 0.1 | 0.0743 | – | 0.0499 | 0.0612 | – | – | 0.0505 | 0.0724 | – | 0.098 | – | –
3 | MGESLFKGPRDYNPISSSICHLTNESDGHTTSLYGIGFGPFIITNKHLFRRNNGTLVVQSLHGVFKVKDTTTLQQHLVDGRDMIIIRMPKDFPPFPQKLKFREPQREERICLVTTNFQTKSMSSMVSDTSCTFPSGDDIFWKHWIQTKDGQCGSPLVSTRDGFIVGIHSASNFTNTNNYFTSVPKNFMELLTNQEAQQWVSGWRLNADSVLWGGHKVFMVKPEEPFQPVKEATQL [G138D] | 0.0444 | – | 0.061 | – | 0.0713 | 0.0622 | – | 0.0656 | – | – | 0.0657 | – | 0.047 | 0.0526 | – | – | – | – | –
4 | MGESLFKGPRDYNPISSSICHLTNESDGHTTSLYGIGFGPFIITNKHLFRRNNGTLVVQSLHGVFKVKDTTTLQQHLVDGRDMIIIRMPKDFPPFPQKLKFREPQREERICLVTTNFQTKSMSSMVSDTSCTFPSGDCIFWKHWIQTKDGQCGSPLVSTRDGFIVGIHSASNFTNTNNYFTSVPKNFMELLTNQEAQQWVSGWRLNADSVLWGGHKVFMVKPEEPFQPVKEATQL [G138C] | 0.0737 | – | 0.0622 | – | 0.0884 | 0.0689 | – | – | – | – | – | – | 0.0553 | – | – | – | – | 0.07 | –
5 | MGESLFKGPRDYNPISSSICHLTNESDGHTTSLYGIGFGPFIITNKHLFRRNNGTLVVQSLHGVFKVKDTTTLQQHLVDGRDMIIIRMPKDFPPFPQKLKFREPQREERICLVTTNFQTKSMSSMVSDTSCTFPSSDGIFWKHWIQTKDGQCGSPLVSTRDGFIVGIHSASNFTNTNNYFTSVPKNFMELLTNQEAQQWVSGWRLNADSVLWGGHKVFMVKPEEPFQPVKEATQL [G136S] | 0.0387 | – | – | – | 0.066 | 0.0631 | – | – | – | – | 0.0592 | 0.0604 | – | – | 0.0512 | 0.0568 | – | – | 0.0544
6 | MGESLFKGPRDYNPISSSICHLTNESDGHTTSLYGIGFGPFIITNKHLFRRNNGTLVVQSLHGVFKVKDTTTLQQHLVDGRDMIIIRMPKDFPPFPQKLKFREPQREERICLVTTNFQTKSMSSMVSDTSCTFPSGDGDFWKHWIQTKDGQCGSPLVSTRDGFIVGIHSASNFTNTNNYFTSVPKNFMELLTNQEAQQWVSGWRLNADSVLWGGHKVFMVKPEEPFQPVKEATQL [I139D] | 0.0775 | 0.0617 | 0.0677 | 0.0489 | 0.0952 | 0.0615 | 0.0649 | 0.0742 | 0.068 | – | 0.0689 | – | 0.0726 | 0.0576 | 0.0678 | 0.0543 | – | 0.0717 | –
7 | MGESLFKGPRDYNPISSSICHLTNESDGHTTSLYGIGFGPFIITNKHLFRRNNGTLVVQSLHGVFKVKDTTTLQQHLVDGRDMIIIRMPKDFPPFPQKLKFREPQREERICLVTTNFQTKSMSSMVSDTSCHFPSGDGIFWKHWIQTKDGQCGSPLVSTRDGFIVGIHSASNFTNTNNYFTSVPKNFMELLTNQEAQQWVSGWRLNADSVLWGGHKVFMVKPEEPFQPVKEATQL [T132H] | 0.0573 | 0.0617 | – | 0.0829 | – | – | 0.0609 | 0.0557 | 0.0644 | – | 0.0318 | 0.0915 | 0.0642 | – | – | 0.0654 | – | – | –
8 | MGESLFKGPRDYNPISSSICHLTNESDGHTTSLYGIGFGPFIITNKHLFRRNNGTLVVQSLHGVFKVKDTTTLQQHLVDGRDMIIIRMPKDFPPFPQKLKFREPQREERICLVTTNFQTKSMSSMVSDTSCPFPSGDGIFWKHWIQTKDGQCGSPLVSTRDGFIVGIHSASNFTNTNNYFTSVPKNFMELLTNQEAQQWVSGWRLNADSVLWGGHKVFMVKPEEPFQPVKEATQL [T132P] | 0.0612 | 0.0688 | 0.0577 | 0.0612 | 0.096 | 0.0622 | 0.058 | 0.0813 | 0.056 | 0.0582 | 0.0675 | – | – | – | 0.06 | 0.0568 | – | 0.0549 | 0.0491
9 | MGESLFKGPRDYNPISSSICHLTNESDGHTTSLYGIGFGPFIITNKHLFRRNNGTLVVQSLHGVFKVKDTTTLQQHLVDGRDMIIIRMPKDFPPFPQKLKFREPQREERICLVTTNFQTKSMSSMVSDTSCTFISGDGIFWKHWIQTKDGQCGSPLVSTRDGFIVGIHSASNFTNTNNYFTSVPKNFMELLTNQEAQQWVSGWRLNADSVLWGGHKVFMVKPEEPFQPVKEATQL [P134I] | 0.0579 | 0.0801 | 0.0432 | – | 0.0632 | 0.0395 | 0.0602 | 0.0613 | 0.0538 | – | 0.0672 | – | – | – | 0.0572 | 0.0608 | – | – | 0.0432
10 | MGESLFKGPRDYNPISSSICHLTNESDGHTTSLYGIGFGPFIITNKHLFRRNNGTLVVQSLHGVFKVKDTTTLQQHLVDGRDMIIIRMPKDFPPFPQKLKFREPQREERICLVTTNFQTKSMSSMVSDTSCTFSSGDGIFWKHWIQTKDGQCGSPLVSTRDGFIVGIHSASNFTNTNNYFTSVPKNFMELLTNQEAQQWVSGWRLNADSVLWGGHKVFMVKPEEPFQPVKEATQL [P134S] | 0.0677 | 0.0534 | – | 0.0578 | – | 0.0796 | – | 0.0667 | – | – | – | 0.0555 | 0.0635 | – | 0.0668 | 0.0317 | – | – | –
